Reference: the supplement of paper PMC4166925
± gives the standard deviation of the averaged measurements. Over roughly 33,000 sequences, “E-score (dimensionless, -0.5 to 0.5)” has its median near -0.046; the highest 2% begin near 0.36. Some of the results follow.

What follows are sequences tested on T1, SpTbr T-box DNA-binding domain (GST fusion) (assay: PBM E-score of 8-mer (E-score (dimensionless, -0.5 to 0.5)); Tbr is Tbrain of the sea star Patiria miniata (Pm) or the sea urchin Strongylocentrotus purpuratus (Sp); higher = stronger binding preference; most listed sequences are background and not binding sites). Conditions: the construct has about 5 more residues each side.
T1 sequence: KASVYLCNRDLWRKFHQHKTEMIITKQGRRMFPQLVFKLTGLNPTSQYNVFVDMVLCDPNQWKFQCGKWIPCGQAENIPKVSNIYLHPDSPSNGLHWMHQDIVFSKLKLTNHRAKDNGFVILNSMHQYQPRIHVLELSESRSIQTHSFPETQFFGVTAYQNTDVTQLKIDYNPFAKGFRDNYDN
How it was run: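 Expression of GST-fused Tbr T-box DNA-binding domains, each holding the full T-box plus roughly five flanking residues, was carried out in BL21 E. coli at 20 °C, with purification by glutathione affinity chromatography. Universal Agilent arrays made double-stranded by primer extension were incubated with the protein at 200 nM in PBS (pH 7.5), then scanned and quantified. All ungapped 8-mers were scored from probe intensities, and each received an enrichment E-score from the Universal PBM Analysis Suite, averaged over duplicate arrays.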

| Sequence | PBM E-score of 8-mer |
| --- | --- |
| GGTTTACA | 0.216 ± 0.048 |
| AAACATGC | -0.0605 ± 0.018 |
| AGTAACGC | 0.215 ± 0.011 |
| ATTAGCTG | -0.0902 ± 0.0076 |
| ATCCAAAA | -0.199 ± 0.0023 |
| GCTTCAGA | -0.177 ± 0.045 |
| CCATAAGA | -0.134 ± 0.088 |
| CTCATGAG | -0.197 ± 0.09 |
| GAACTAGC | 0.0258 ± 0.039 |
| CCTAGGCC | -0.0372 ± 0.013 |
| AGATTCAG | -0.2384 ± 0.0019 |
| CAAAGGGG | -0.0321 ± 0.014 |
| AGCCAGCG | -0.0843 ± 0.057 |
| CGGAGTGA | 0.156 ± 0.0067 |
| ACTCTCCT | -0.273 ± 0.084 |
| AATGTCAG | 0.0267 ± 0.006 |
| CAAAGATC | -0.077 ± 0.049 |
| ACTCTCTA | -0.104 ± 0.054 |
| GCCGACGC | 0.139 ± 0.08 |
| ACCGGCAA | 0.0514 ± 0.024 |
| GACGACAC | 0.301 ± 0.039 |
| CAGATGAA | -0.178 ± 0.024 |
| AACAGCCG | 0.057 ± 0.052 |
| ACAGCATA | -0.105 ± 0.044 |

| Sequence | PBM E-score of 8-mer |
| --- | --- |
| AGTTTACC | -0.0346 ± 0.0032 |
| GCAGCGCA | -0.144 ± 0.065 |
| CTTTATCA | 0.112 ± 0.1 |
| ATGCATCA | 0.0819 ± 0.023 |
| AAACGCCC | -0.134 ± 0.035 |
| CACAACTC | 0.25 ± 0.0039 |
| CAAACAAG | -0.0153 ± 0.01 |
| GCATCTCA | 0.0109 ± 0.05 |
| ATACAAGG | -0.0736 ± 0.053 |
| GGAGACAC | 0.193 ± 0.045 |
| CACTATAC | 0.1235 ± 0.00072 |
| AATGTGTA | 0.207 ± 0.05 |
| AGGGACGG | -0.234 ± 0.02 |
| CGCCGCGC | 0.182 ± 0.05 |
| TATCGCAA | 0.157 ± 0.034 |
| CAGAAGCC | -0.308 ± 0.064 |
| GAGTGAAC | 0.135 ± 0.004 |
| ACTTAACA | 0.278 ± 0.007 |
| AGCTCACG | 0.218 ± 0.011 |
| ACAAAGCA | 0.0986 ± 0.034 |
| CGCTACAC | 0.157 ± 0.037 |
| ATACCTGC | -0.0105 ± 0.0085 |
| ATCGTAAT | -0.054 ± 0.019 |
| AGCTAATG | -0.121 ± 0.004 |

| Sequence | PBM E-score of 8-mer |
| --- | --- |
| CCATTCAA | -0.212 ± 0.025 |
| CGAGACAA | -0.0311 ± 0.082 |
| ATGTTTTC | -0.113 ± 0.097 |
| ATCAAATA | -0.182 ± 0.015 |
| GATGTGCA | 0.104 ± 0.0087 |
| ATGGTTGC | -0.111 ± 0.059 |
| ATGACGTA | -0.161 ± 0.027 |
| CAAGAACG | -0.267 ± 0.011 |
| ATCCTAAT | -0.0123 ± 0.069 |
| ACCCAGCA | -0.0902 ± 0.02 |
| ATCATCTA | 0.0151 ± 0.025 |
| CCTTGTTC | 0.0575 ± 0.0017 |
| CACCCAGA | 0.0853 ± 0.003 |
| CATTGGCG | 0.188 ± 0.021 |
| ATAGTGAC | 0.186 ± 0.035 |
| GCAGCGAA | 0.104 ± 0.068 |
| ATTCTAGG | -0.144 ± 0.065 |
| AGGAACAG | -0.0437 ± 0.058 |
| CTACAGAC | 0.1 ± 0.042 |
| CGACCCAA | -0.047 ± 0.0032 |
| GAATTGTC | 0.114 ± 0.046 |
| ATCTGAGG | -0.0695 ± 0.017 |
| CTCCCGCC | 0.0623 ± 0.0039 |
| AGCAGAGG | -0.166 ± 0.026 |

| Sequence | PBM E-score of 8-mer |
| --- | --- |
| ACGTTCTC | 0.154 ± 0.065 |
| CGCTTCAC | 0.235 ± 0.042 |
| GGGGAACA | -0.168 ± 0.05 |
| ATACCCGA | -0.0946 ± 0.026 |
| AGAGTAGG | -0.2048 ± 0.001 |
| ACTCTTGC | -0.146 ± 0.036 |
| AGTCAAAT | -0.128 ± 0.0056 |
| ATGATAGG | -0.0451 ± 0.051 |
| AGGGTCCA | -0.251 ± 0.041 |
| GCATACGC | -0.176 ± 0.088 |
| AGCAGTAA | -0.0816 ± 0.014 |
| GTGGTTTA | -0.0725 ± 0.0017 |
| CAGAGCGA | -0.0771 ± 0.06 |
| TTATTCAA | -0.192 ± 0.064 |
| AGGGGCGA | 0.0688 ± 0.05 |
| CCTCGCAA | 0.102 ± 0.077 |
| GCGCGCCA | 0.133 ± 0.087 |
| ACATCTAA | -0.0272 ± 0.027 |
| AACCCTCG | -0.144 ± 0.00099 |
| CTCCGGAG | -0.102 ± 0.1 |
| ACATTGAG | -0.0909 ± 0.037 |
| GACTTAGA | -0.151 ± 0.12 |
